Test results as given in PubChem BioAssay AID1030 (National Center for Advancing Translational Sciences (NCATS), 2008).
The whole screen tested about 220,000 compounds, of which about 16,000 (7.3%) were called active. Inconclusive results, whose numbers are uncertain, are shown with a selection of clear calls. Calls follow the shape of the dose curve; as a rule, active = well fitted inhibition curve with a large enough effect (not every such curve was filed as active); inconclusive = small, poorly fitted or top-dose-only effect, or another doubt; inactive = no such curve, though single readings can be large or run the other way. Potencies beside an inconclusive call are fits to weak or partial responses and may not hold up. The source holds several records for some structures; these can differ, active in one and inactive in another.

What follows are molecules tested against Aldehyde dehydrogenase 1A1 (Homo sapiens) (UniProt P00352) (assay: qHTS Assay for Inhibitors of Aldehyde Dehydrogenase 1 (ALDH1A1)). Conditions: Purified ALDH1A1, NADH fluorescence, propionaldehyde substrate; series mostly up to 75.3 µM.
Chain of UniProt P00352 (P00352 whole entry, looked up): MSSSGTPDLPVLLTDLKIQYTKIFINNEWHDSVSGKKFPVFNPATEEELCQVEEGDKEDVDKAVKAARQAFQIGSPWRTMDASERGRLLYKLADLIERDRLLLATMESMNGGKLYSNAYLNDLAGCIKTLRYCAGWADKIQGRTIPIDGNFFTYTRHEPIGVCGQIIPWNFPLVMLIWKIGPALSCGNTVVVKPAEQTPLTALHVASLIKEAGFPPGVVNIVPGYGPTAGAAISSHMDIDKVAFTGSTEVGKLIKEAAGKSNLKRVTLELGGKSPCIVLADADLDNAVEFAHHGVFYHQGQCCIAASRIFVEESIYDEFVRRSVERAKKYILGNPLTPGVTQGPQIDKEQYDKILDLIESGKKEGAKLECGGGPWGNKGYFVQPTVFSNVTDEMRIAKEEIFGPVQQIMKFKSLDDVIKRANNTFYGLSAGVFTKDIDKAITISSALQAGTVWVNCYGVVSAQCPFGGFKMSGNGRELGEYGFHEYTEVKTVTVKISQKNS

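For activity, negative = inhibition in this document: plate controls were no enzyme wells and a reference inhibitor.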
Potency is read from the fitted curve at half-maximal effect; tags tell the direction and shape of the fitted curve.

Potency, inactive:
CCOC(=O)c1ccc(NC(=O)CN2C(=O)C(C)SC(C)C2=O)cc1 (stereo unspecified)
COC(=O)c1c(C(=O)OC)c2n(c1C)CCC2
O=C(N/N=C(/CC(=O)c1cccs1)C(F)(F)F)c1ccc(O)cc1
Cc1nc2ccc(S(=O)(=O)NCC(=O)N(C)Cc3ccco3)cc2s1
O=C(CNC(=O)c1cccs1)NCC(=O)OCc1ccccc1Cl
CCOc1ccccc1-c1cc(C(=O)N/N=C/c2ccc(O)c(OC)c2)c2ccccc2n1
N#CCC(=O)Nn1c(=S)[nH]c2ccccc2c1=O
O=C(c1ccccn1)N1N=C2/C(=C/c3ccc(F)cc3)CCCC2C1c1ccc(F)cc1 (stereo unspecified)
CN1CCN(/N=C/c2ccc(N(C)c3ccccc3)cc2)CC1
N/C(=N\OC(=O)COc1ccc(Cl)cc1Cl)c1ccccn1
O=C(O)C1=C[C@H](c2ccc(C(F)(F)F)cc2)C[C@H](OCc2ccc(CO)cc2)O1
Oc1ccccc1CNc1ccc(OC(F)(F)F)cc1
COc1ccc(C(=O)Nc2cc(C)nn2-c2nc3ccccc3[nH]2)c(OC)c1
COc1ccc(C(=O)NC2CCN(C(=S)Nc3ccc(C)cc3)CC2)cc1
CCOc1ccc(-n2c(SCC(=O)Nc3ccc(OC)cc3)nc3c(c2=O)SCC3)cc1

Potency, active:
CCc1ccc(/C=C2/C(=O)N(c3ccccc3)C(=S)N2CC(=O)OC)s1 8.91 µM
COc1cc(/C(C)=N/NC(=O)CSc2nncn2C)ccc1OCc1ccccc1Cl 5.01 µM
Cc1cccn2c(CN(C)CCC3CCCCO3)c(C(=O)N3CCCCC3)nc12 (stereo unspecified) 3.16 µM
CN1CCN(CCCCOc2ccccc2C=O)CC1 22.4 µM
O=C(Nc1cccc(Cl)c1)c1cccc(Oc2ccc([N+](=O)[O-])cc2Cl)c1 10 µM
CC(C)(N=NC(C)(C)C(=N)N)C(=N)N 31.6 µM
O=C(Nc1ccc(Cl)cn1)C1COc2ccccc2O1 (stereo unspecified) 22.4 µM

Potency, inconclusive:
CC(=O)NC1C(=O)N=C(SCC(=O)NC2CCCCC2)NC1=O (stereo unspecified) 31.6 µM [inhibitor, single point]
CCOC(=O)CN1N=C(/C=C/c2ccc(OC)cc2)CCC1=O 39.8 µM [inhibitor, single point]
CC1(C)Cc2c(sc3c2c(=N)n(Cc2ccco2)c(=O)n3CC(=O)Nc2ccccc2)CO1 15.8 µM [inhibitor, partial curve]
COc1cc(OC)c(/C=N/NC(=O)c2ccc(Cn3nc([N+](=O)[O-])cc3C)cc2)c(OC)c1 28.2 µM [inhibitor, single point]
COc1ccc(-c2nn(-c3ccccc3)cc2C2CC(c3cccs3)=NN2C(=O)CCCC(=O)O)cc1 (stereo unspecified) 39.8 µM [inhibitor, single point]
Nc1c(C(=O)O)ccc2c1C(=O)c1ccccc1C2=O 39.8 µM [inhibitor, single point]
CC(=O)c1sc2nc(-c3cccs3)ccc2c1N 14.1 µM [inhibitor, partial curve]
COc1ccccc1-n1cnnc1SC1CCOC1=O (stereo unspecified) 35.5 µM [inhibitor, single point]
O=C1CC(SC2=NCCS2)C(=O)N1c1cccc(Cl)c1Cl (stereo unspecified) 3.98 µM [inhibitor, partial curve]
COCc1nc(-c2ccc(-c3ccc(OC)cc3)nc2OC)no1 14.1 µM [inhibitor, partial curve]
COc1ccc(/C=N/NC(=O)CNC(=O)C2COc3ccccc3O2)cc1OC (stereo unspecified) 28.2 µM [inhibitor, single point]
CC(C)Oc1cccc(-c2cc(C(=O)NC(=S)N(C)c3ccccc3C(=O)O)c3ccccc3n2)c1 28.2 µM [inhibitor, partial curve]
CS(=O)(=O)N1CCC(C(=O)N2CCN(Cc3ccccc3)CC2)CC1 44.7 µM [inhibitor, single point]
CC1Cc2ccccc2N1C(=S)NC(=O)c1cccc(Br)c1 (stereo unspecified) 39.8 µM [inhibitor, single point]
Cc1ccc(Nc2nc(CSc3nnnn3C)cs2)cc1 44.7 µM [inhibitor, single point]
Cc1cccc(-n2c(C)cc(/C=N/O)c2C)c1 3.16 µM [inhibitor, single point]
CCOC(=O)c1cccc(COC(=O)c2cccc(-c3nnc(-c4ccccc4)o3)c2)c1 15.8 µM [inhibitor, single point]
Cc1ccc(S(=O)(=O)n2c(=O)oc3ccccc32)cc1 28.2 µM [inhibitor, single point]
COc1ccc(-c2csc(Cc3nnc(N4CCOCC4)n3-c3ccccc3)n2)cc1 39.8 µM [inhibitor, single point]
CCc1cc(OCCCSc2nc(C)cc(=O)[nH]2)ccc1Cl 39.8 µM [inhibitor, single point]
CCc1nnc(NC(=O)c2cc(S(=O)(=O)N(CC)CC)ccc2Cl)s1 10 µM [inhibitor, partial curve]
CCCc1cc(-c2[nH]ncc2-c2ccc(C(=O)OCC)o2)c(O)cc1O 7.94 µM [inhibitor, full curve]
O=C(CSc1nnc(-c2cccnc2)n1Cc1ccco1)c1ccc2ccccc2c1 31.6 µM [inhibitor, single point]
COc1ccc2[nH]cc(CCNc3ccnc(-c4cccc(NS(C)(=O)=O)c4)n3)c2c1 39.8 µM [inhibitor, single point]
N#CC1=C(N)OC2=C(C(=O)CC(c3ccccc3)C2)C1c1ccoc1 (stereo unspecified) 39.8 µM [inhibitor, single point]
COc1ccc(OC)c(C2C3=C(N=C4SCC(=O)N42)c2ccccc2CC3)c1 (stereo unspecified) 12.6 µM [inhibitor, partial curve]
CCOCCCNC(=O)C(Cc1ccccc1)NS(=O)(=O)c1ccc2c(c1)c(=O)n(C)c(=O)n2C (stereo unspecified) 35.5 µM [inhibitor, partial curve]
CC(C)c1ccc(N(CC(=O)NN=C2CCN(C)CC2)S(=O)(=O)c2ccccc2)cc1 25.1 µM [inhibitor, single point]
NC(=O)c1ccccc1NS(=O)(=O)Cc1ccccc1 22.4 µM [inhibitor, partial curve]
O=C(NC(=S)Nc1ccccc1N1CCCCC1)c1cccs1 31.6 µM [inhibitor, single point]
Clc1cccc(OCCCN2CCCC2)c1Cl 39.8 µM [inhibitor, single point]
CCC(=O)N1CCN(c2c(Cl)cccc2[N+](=O)[O-])CC1 39.8 µM [inhibitor, single point]
CCO 31.6 µM [inhibitor, single point]
O=C(CC1c2ccccc2Oc2ccccc21)N1CCN(c2ccccn2)CC1 39.8 µM [inhibitor, single point]
O=Cc1c(N2CCCCCC2)nc2ccccn2c1=O 20 µM [inhibitor, partial curve]
CCCN1CCN(CCCNC(=O)Cn2nc(-c3ccc(C)cc3)ccc2=O)CC1 39.8 µM [inhibitor, single point]
O=C1CCOc2cc(OCc3ccccc3)ccc21 39.8 µM [inhibitor, single point]
CC(=O)NCC(=O)N(c1ccccc1)C1(C(=O)NC2CCCCC2)CCCCC1 25.1 µM [inhibitor, partial curve]
OCCN(Cc1ccccc1)Cc1ccccc1Cl 20 µM [inhibitor, single point]
CCOC(=O)CNC(=O)CSc1nnc(-c2cccc(C)c2)n1-c1ccc(OC)cc1 25.1 µM [inhibitor, single point]
Cc1cccc2cc(CN(Cc3cccs3)C(c3nnnn3C3CCCC3)C(C)C)c(=O)[nH]c12 (stereo unspecified) 14.1 µM [inhibitor, partial curve]
Cc1ccc(S(=O)(=O)NCc2ccc(/C=C(/C#N)C(=O)NCc3ccccc3)o2)cc1 39.8 µM [inhibitor, single point]
COc1ccc(Cc2nn3c(-c4ccccc4Br)nnc3s2)cc1 39.8 µM [inhibitor, single point]
CCOc1ccccc1OCCOCCN1CCN(Cc2ccccc2)CC1 28.2 µM [inhibitor, partial curve]
COc1ccccc1CN(C)CC(=O)Nc1ccccc1-c1ccccc1 31.6 µM [inhibitor, single point]
COC(=O)CNC(=O)c1ccc(NS(=O)(=O)c2cc([N+](=O)[O-])ccc2Cl)cc1 39.8 µM [inhibitor, single point]
Cc1ccc(CN2CCSc3ccc(C(=O)NCc4cccnc4)cc32)cc1 25.1 µM [inhibitor, partial curve]
C=CCSc1nnc(-c2nnc(SCC=C)n2-c2ccccc2)n1-c1ccccc1 35.5 µM [inhibitor, single point]

activity, negative = inhibition, inactive:
CC(C)(N=NC(C)(C)C(=N)N)C(=N)N -8.94% [at 13.5 µM]
